Measurements published in publication PMC6130882 (PLoS Pathogens, 2018).

Target: T1, MAdCAM-Ig fusion protein (human, UniProt Q13477 19-317)
T1 construct: also called Hu-MAdCAM-Ig; MAdCAM-1
T1 sequence (looked up): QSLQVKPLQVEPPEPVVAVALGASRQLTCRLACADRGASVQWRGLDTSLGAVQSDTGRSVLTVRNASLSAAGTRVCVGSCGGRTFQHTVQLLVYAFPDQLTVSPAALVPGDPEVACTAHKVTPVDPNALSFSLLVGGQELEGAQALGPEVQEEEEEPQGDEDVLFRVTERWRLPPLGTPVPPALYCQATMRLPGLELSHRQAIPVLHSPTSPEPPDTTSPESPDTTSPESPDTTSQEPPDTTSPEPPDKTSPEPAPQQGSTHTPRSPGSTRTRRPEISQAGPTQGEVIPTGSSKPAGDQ
Assay: static cell adhesion assay; RPMI8866 cells on immobilised MAdCAM or cV2 92TH023 in buffer with a high concentration of MgCl2
Conditions: one partner purified

fold reduction of adhesion in MgCl2 against MnCl2: ~5 fold
B1: integrin α4β7 expressed on the surface of RPMI8866 cells (receptor)
chain 1: not shown
chain 2: ELDAKIPSTGDATEWRNPHLSMLGSCQPAPSCQKCILSHPSCAWCKQLNFTASGEAEARRCARREELLARGCPLEELEEPRGQQEVLQDQPLSQGARGEGATQLAPQRVRVTLRPGEPQQLQVRFLRAEGYPVDLYYLMDLSYSMKDDLERVRQLGHALLVRLQEVTHSVRIGFGSFVDKTVLPFVSTVPSKLRHPCPTRLERCQSPFSFHHVLSLTGDAQAFEREVGRQSVSGNLDSPEGGFDAILQAALCQEQIGWRNVSRLLVFTSDDTFHTAGDGKLGGIFMPSDGHCHLDSNGLYSRSTEFDYPSVGQVAQALSAANIQPIFAVTSAALPVYQELSKLIPKSAVGELSEDSSNVVQLIMDAYNSLSSTVTLEHSSLPPGVHISYESQCEGPEKREGKAEDRGQCNHVRINQTVTFWVSLQATHCLPEPHLLRLRALGFSEELIVELHTLCDCNCSDTQPQAPHCSDGQGHLQCGVCSCAPGRLGRLCECSVAELSSPDLESGCRAPNGTGPLCSGKGHCQCGRCSCSGQSSGHLCECDDASCERHEGILCGGFGRCQCGVCHCHANRTGRACECSGDMDSCISPEGGLCSGHGRCKCNRCQCLDGYYGALCDQCPGCKTPCERHRDCAECGAFRTGPLATNCSTACAHTNVTLALAPILDDGWCKERTLDNQLFFFLVEDDARGTVVLRVRPQEKGADHTQAIVLGCVGGIVAVGLGLVLAYRLSVEIYDRREYSRFEKEQQQLNWKQDSNPLYKSAITTTINPRFQEADSPTL
notes: also called cell-surface expressed α4β7
